In US7592316B2, “Peptides as NS3-serine protease inhibitors of hepatitis C virus” (Schering Corporation, priority 2000, dated 2009):

Each compound was assayed against HCV NS3/NS4A protease (strain 1a) (Hepatitis C virus genotype 1a, UniProt P27958) (assay: biochemical). Conditions: Table 5; HCV NS3/NS4A protease, spectrophotometric assay, 30° C., pH 6.5; read-out: Ki* Range.
With `C=CCNC(=O)C(=O)C(CCC1CC1)NC(=O)[C@@H]1[C@@H]2[C@H](CN1C(=O)[C@@H](NC(=O)OC(C)(C)C)C(C)(C)C)C2(C)C` (stereo partly shown) the Ki was 101 to 1000 nM.
In the case of `C=CCNC(=O)C(=O)C1(NC(=O)[C@@H]2[C@@H]3[C@H](CN2C(=O)[C@@H](NC(=O)OC(C)(C)C)C(C)(C)C)C3(C)C)CC1`, the Ki is reported as > 1000 nM.
Work on `CCCC(NC(=O)[C@@H]1[C@@H]2[C@H](CN1C(=O)[C@@H](NC(=O)OC(C)(C)C)C(C)(C)C)C2(C)C)C(=O)C(=O)NCCC(=O)Nc1ccccc1` (stereo partly shown) yielded a Ki of 101 to 1000 nM.
In the case of `C=CCCC(NC(=O)C1[C@H]2[C@@H](CN1C(=O)[C@@H](NC(=O)OC(C)(C)C)C(C)(C)C)C2(C)C)C(=O)C(=O)NCC#N` (stereo partly shown), the Ki is reported as 101 to 1000 nM.
For `C=CCC(NC(=O)[C@@H]1C2C(CN1C(=O)[C@@H](NC(=O)OC(C)(C)C)C(C)(C)C)C2(C)C)C(=O)C(=O)NCC(=O)NCC1CCCCC1` (stereo partly shown), the Ki was 101 to 1000 nM.
With `CCCNC(=O)CNC(=O)C(=O)C(CCC)NC(=O)[C@@H]1[C@@H]2[C@H](CN1C(=O)[C@@H](NC(=O)OC(C)(C)C)C(C)(C)C)C2(C)C` (stereo partly shown) the Ki was > 1000 nM.
`C=CCNC(=O)CNC(=O)C(=O)C(CCC)NC(=O)[C@@H]1[C@@H]2[C@H](CN1C(=O)[C@@H](NC(=O)OC(C)(C)C)C(C)(C)C)C2(C)C` (stereo partly shown) was tested, and the Ki was 101 to 1000 nM.
`C#CCNC(=O)C(=O)C(CCC)NC(=O)[C@@H]1[C@@H]2[C@H](CN1C(=O)[C@@H](NC(=O)OC(C)(C)C)C(C)(C)C)C2(C)C` (stereo partly shown) was tested, and the Ki was > 1000 nM.
In the case of `C=CCNC(=O)C(=O)C(CC#CC)NC(=O)[C@@H]1[C@H]2[C@@H](CN1C(=O)[C@@H](NC(=O)OC(C)(C)C)C(C)(C)C)C2(C)C` (stereo partly shown), the Ki is reported as > 1000 nM.
Work on `C=CCNC(=O)C(=O)C(CCc1ccccc1)NC(=O)C1[C@H]2[C@@H](CN1C(=O)C(NC(=O)OC(C)(C)C)C1CCC(F)(F)CC1)C2(C)C` (stereo partly shown) yielded a Ki of 101 to 1000 nM.
Work on `C=CCCC(NC(=O)[C@@H]1[C@H]2[C@@H](CN1C(=O)[C@@H](NC(=O)OC(C)(C)C)C1CCC(F)(F)CC1)C2(C)C)C(=O)C(=O)NCC=C` (stereo partly shown) yielded a Ki of 1 to 100 nM.
With `C=CCCC(NC(=O)[C@@H]1[C@H]2[C@H](CN1C(=O)[C@@H](NC(=O)OC(C)(C)C)C(C)(C)C)C2(C)C)C(=O)C(=O)NCCC(=O)OC(C)(C)C` (stereo partly shown) the Ki was 101 to 1000 nM.
`C=CCC(NC(=O)[C@@H]1[C@H]2[C@@H](CN1C(=O)[C@@H](NC(=O)OC(C)(C)C)C(C)(C)C)C2(C)C)C(=O)C(=O)NCC(=O)NCc1ccc([N+](=O)[O-])cc1` (stereo partly shown) gave a Ki of 101 to 1000 nM.
Compound `CNC(=O)C(=O)C(CC1CC1)NC(=O)[C@@H]1[C@@H]2[C@H](CN1C(=O)[C@@H](NC(=O)OC(C)(C)C)C(C)(C)C)C2(C)C` (stereo partly shown) has a Ki of 101 to 1000 nM.
`CNC(=O)C(=O)C(CC1CC1)NC(=O)[C@@H]1[C@@H]2[C@H](CN1C(=O)[C@@H](NC(=O)OC(C)(C)C)C1CCCCC1)C2(C)C` (stereo partly shown) gave a Ki of 101 to 1000 nM.
In the case of `C=CCNC(=O)C(=O)C(CC1CC1)NC(=O)[C@@H]1[C@@H]2[C@H](CN1C(=O)[C@@H](NC(=O)OC(C)(C)C)C1CCCCC1)C2(C)C` (stereo partly shown), the Ki is reported as 101 to 1000 nM.
With `C=CCNC(=O)C(=O)C(CC1CC1)NC(=O)[C@@H]1[C@@H]2[C@H](CN1C(=O)[C@@H](NC(=O)OC(C)(C)C)C1CCC(F)(F)CC1)C2(C)C` (stereo partly shown) the Ki was 101 to 1000 nM.
With `C=CCCC(NC(=O)[C@@H]1[C@@H]2[C@H](CN1C(=O)[C@@H](NC(=O)OC(C)(C)C)C(C)(C)C)C2(C)C)C(=O)C(=O)NCC(=O)c1ccccc1` (stereo partly shown) the Ki was 101 to 1000 nM.
In the case of `C=CCNC(=O)C(=O)C(CCC)NC(=O)C1C2C(CN1C(=O)C(NC(=O)OC(C)(C)C)C1CCC(F)(F)CC1)C2(C)C` (stereo not shown), the Ki is reported as 101 to 1000 nM.
For `C=CCCC(NC(=O)[C@@H]1[C@H]2[C@@H](CN1C(=O)[C@@H](NC(=O)OC(C)(C)C)C1CCC(F)(F)CC1)C2(C)C)C(=O)C(=O)NCCC(=O)OC(C)(C)C` (stereo partly shown), the Ki was 1 to 100 nM.
`C=CCCC(NC(=O)C1C2C(CN1C(=O)[C@@H](NC(=O)OC(C)(C)C)C(C)(C)C)C2(C)C)C(=O)C(=O)NC/C=C/C(=O)OCC` (stereo partly shown) was tested, and the Ki was 101 to 1000 nM.
For `C=CCCC(NC(=O)[C@@H]1[C@@H]2[C@H](CN1C(=O)[C@@H](NC(=O)OC(C)(C)C)C(C)(C)C)C2(C)C)C(=O)C(=O)NCC(=C)CCc1ccccc1` (stereo partly shown), the Ki was > 1000 nM.
`C=CCCC(NC(=O)C1[C@H]2[C@@H](CN1C(=O)[C@@H](NC(=O)OC(C)(C)C)C(C)(C)C)C2(C)C)C(=O)C(=O)NCCNC(C)=O` (stereo partly shown) showed a Ki of 101 to 1000 nM.
`CONC(=O)C(=O)C(CC1CC1)NC(=O)[C@@H]1[C@@H]2[C@H](CN1C(=O)[C@@H](NC(=O)OC(C)(C)C)C1CCCCC1)C2(C)C` (stereo partly shown) was tested, and the Ki was 101 to 1000 nM.
For `C=CCONC(=O)C(=O)C(CC1CC1)NC(=O)[C@@H]1[C@@H]2[C@H](CN1C(=O)[C@@H](NC(=O)OC(C)(C)C)C1CCCCC1)C2(C)C` (stereo partly shown), the Ki was > 1000 nM.
`C=CCCC(NC(=O)[C@@H]1[C@H]2[C@@H](CN1C(=O)[C@@H](NC(=O)OC(C)(C)C)C(C)(C)C)C2(C)C)C(O)C(=O)NC/C=C/C(=O)OCC` (stereo partly shown) was tested, and the Ki was > 1000 nM.
For `C=CCNC(=O)C(=O)C(CCC)NC(=O)C1[C@H]2[C@@H](CN1C(=O)C(NC(=O)OCC(C)C)C1CCC(F)(F)CC1)C2(C)C` (stereo partly shown), the Ki was 101 to 1000 nM.
`C=CCNC(=O)C(=O)C(CCC)NC(=O)[C@@H]1[C@@H]2[C@H](CN1C(=O)[C@H](C(C)C)N(C)C(=O)OC(C)(C)C)C2(C)C` (stereo partly shown) was tested, and the Ki was > 1000 nM.
Compound `C=CCNC(=O)C(=O)C(CCC)NC(=O)[C@@H]1[C@@H]2[C@H](CN1C(=O)[C@@H](NC(=O)OC(C)(C)C)C(C)C)C2(C)C` (stereo partly shown) has a Ki of 101 to 1000 nM.
For `CCCC(NC(=O)C1C2C(CN1C(=O)C(NC(=O)OC(C)(C)C)C(C)(C)C)C2(C)C)C(=O)C(=O)NCCC(c1ccccc1)c1ccccc1` (stereo not shown), the Ki was > 1000 nM.
`CCCC(NC(=O)[C@@H]1C2C(CN1C(=O)C(NC(=O)OC(C)(C)C)C(C)(C)C)C2(C)C)C(=O)C(=O)NC/C=C/c1ccccc1` (stereo partly shown) was tested, and the Ki was > 1000 nM.
